67 compounds from PubChem BioAssay AID1240 (Sanford-Burnham Center for Chemical Genomics, 2008) can be followed below.

Molecules are shown by their SMILES. The whole screen tested about 50,000 compounds, of which about 800 (1.6%) showed an effect of 50% or more. The list shows a part of the results.

The target of the test is Bcl-2-like protein 10 (Homo sapiens) (UniProt Q9HD36). Nature of the test: Phenotype converters, Bcl-B/TR3 peptide binding displacement, primary biochemical FP (AID 1240).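 Also: 0% = Bcl-B with tracer peptide and DMSO and 100% = tracer peptide lacking Bcl-B.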 To be noted: GST-Bcl-B / FITC-TR3 peptide fluorescence polarization; stronger effect = higher value; compound at 3.75 mg/L. A general note: Fluorescence polarisation rises when a labelled molecule tumbles more slowly, as on binding a larger partner.
Sequence of UniProt Q9HD36 (Q9HD36 whole entry, looked up): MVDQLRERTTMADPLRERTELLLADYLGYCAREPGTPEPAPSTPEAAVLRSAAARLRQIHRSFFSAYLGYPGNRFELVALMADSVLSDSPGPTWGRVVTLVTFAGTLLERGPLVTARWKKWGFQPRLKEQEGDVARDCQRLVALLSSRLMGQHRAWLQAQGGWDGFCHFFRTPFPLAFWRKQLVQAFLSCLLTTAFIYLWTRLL
Regarding `COC(=O)C1C(=O)CC(C)(O)C(C(=O)OC)C1c1ccc(Br)cc1` (configuration not stated), the displacement was 5.5%. Take `COc1cccc(NC(=O)COc2ccc(C(C)(C)C)cc2)c1`: the displacement was -7.2%. Take `CCCCCCN1C(=O)/C(=C2\SC(=O)NC2=O)c2ccccc21`: the displacement was 5.4%.

Take `O=C(Nc1cccc(Br)c1)C1C2CCC3C(CCC21)C3(Cl)Cl` (configuration not stated): the displacement was -12.6%. As for `C=CCc1cccc2cc(C(=O)Nc3cccc(C(=O)O)c3)c(=O)oc12`, the displacement was -6%. The value for `COc1ccc(OC)c(/C=N\NC(=O)c2c(C)nc3cc(C)ccn23)c1` was -0.4%. In the case of `CCCC(=O)C1=C(O)C(C(=O)OC)C(C)(C)CC1=Nc1cccc2ccccc12` (configuration not stated), the displacement came to 6.1%.

With `COc1cc(C2NC(=O)NC(C)=C2C(=O)OCCC#N)cc(OC)c1OC` (configuration not stated), the displacement is 0.6%. Turning to `Cc1cc2c(cc1C)NC(CC(=O)Nc1ccc([N+](=O)[O-])cc1)C(=O)N2` (configuration not stated), the displacement is -8.9%. With `O=C(Nc1c(C(=O)N2CCC(Cc3ccccc3)CC2)cnn1-c1ccccc1)c1ccccc1F`, the displacement was 88.9%.

In the case of `O=[N+]([O-])c1ccccc1Nc1nnc(-c2ccccc2)c(-c2ccccc2)n1`, the displacement is 5.2%. `COc1ccc(N(CC(=O)Nc2ccc3ccccc3c2)S(C)(=O)=O)cc1`: the displacement came to 0.3%. The value for `CN(C)c1ccc(/C=c2/sc3nc(-c4ccc(Cl)cc4Cl)nn3c2=O)cc1` was -7.4%. Consider `COc1cc(C2/C(=C(\O)c3ccccc3)C(=O)C(=O)N2c2cccnc2)ccc1O` (configuration not stated), for which the displacement was -0.4%. In the case of `O=C(O)CCCN1C(=O)C(=O)/C(=C(/O)c2ccccc2)C1c1cccc(F)c1` (configuration not stated), the displacement was -6.6%. As for `CCCn1c(C(O)c2cc(OC)c(OC)c(OC)c2)nc2ccccc21` (configuration not stated), the displacement is -3.5%. Regarding `COC(=O)Cc1nc2sc3c(c2c(=O)n1Cc1ccccc1)CCC(C(C)(C)C)C3` (configuration not stated), the displacement was -7%.

Turning to `CCn1c(SCC(=O)N/N=C/c2cccn2C)nnc1-c1ccc(OC)cc1`, the displacement came to 10%.

On to `CC1=NNC(=O)C1CC(=O)N/N=C(/C)c1cccc([N+](=O)[O-])c1` (configuration not stated), for which the displacement is -4.6%.

As for `CCOC(=O)C1=CN(c2ccc(OCC)cc2)C=C(C(=O)OCC)C1c1ccc(F)cc1`, the displacement is 5.3%. Regarding `Cc1ccc(/C=C/C(=O)Nc2ccc(Cl)cc2Cl)o1`, the displacement worked out at 9.6%. The figure for `Cc1ccc(NC(=O)CSC(N)=O)c(C)c1` is -2.2%.

Turning to `O=C1C(Cl)=C(Nc2cccc([N+](=O)[O-])c2)c2c(Cl)c(Cl)c(Cl)c(Cl)c21`, the displacement is 1.8%. The value for `CN(C1=NC(=O)/C(=C\c2ccc(Cl)cc2)S1)c1ccc(O)cc1` was 7.4%. With `CCCCOc1ccc(C(=O)N2CCC(Cc3ccccc3)CC2)cc1`, the displacement was -4.5%. Regarding `O=C(c1cccs1)N(CCN(C(=O)c1cccs1)c1ccccc1)c1ccccc1`, the displacement is -5.5%. As to `O=C1NC(=S)N/C1=C/c1ccc(-c2cccc(Br)c2)o1`, the displacement amounted to 15.5%. In the case of `COc1ccc(/C=C2/SC(=O)N(CCC(=O)Nc3ccc(S(N)(=O)=O)cc3)C2=O)cc1`, the displacement is 4%. Consider `COc1ccc(OC)c(/C=C2\SC(=S)N(c3ccccc3C)C2=O)c1`, for which the displacement turned out to be 158%. The figure for `CC1=C(C(=O)OCCc2ccccc2)C(c2ccc([N+](=O)[O-])cc2)CC(=O)N1` (configuration not stated) is -8%; for `Cc1c(NCc2ccccc2)[nH]c(=O)[nH]c1=O` it is -5.4%; for `Cc1cc(-n2ccnc2)n2c(nc3ccccc32)c1C#N` it is 33.3%.

In the case of `O=C(NCC1CCCO1)/C(=C/c1ccc(-c2ccccc2Cl)o1)NC(=O)c1ccccc1` (configuration not stated), the displacement turned out to be 19.7%. In the case of `COc1ccccc1N1CCN(C(=O)C2C3C=CC(C3)C2C(=O)O)CC1` (configuration not stated), the displacement is 1.5%. As to `Cc1ccsc1/C=C1\SC(=S)N(c2ccccc2)C1=O`, the displacement was found to be 126%. Consider `CCOC(=O)c1ccccc1NC(=O)C1CC(=O)N(c2ccc(CC)cc2)C1` (configuration not stated), for which the displacement came out at 1.9%. The figure for `Cc1ccc(OCC(=O)NNC(=O)Cc2ccc(Cl)cc2)c(C)c1` is 13.1%. On to `CCOC(=O)c1c(NC(=O)COc2c(C)cc(C)cc2C)sc(C(=O)Nc2ccccc2)c1C`, for which the displacement amounted to 13.1%.

As for `Cc1ccc2nsnc2c1NC(=O)c1ccc(Br)o1`, the displacement was 15.6%.

For the compound `CC(C)CNC(=O)COc1ccc(Br)cc1`, the displacement is -3.8%.

As to `Cc1cccc(C(=O)N2CCN(Cc3ccccc3)CC2)c1`, the displacement is -3.4%.

Consider `CN(C)c1ccc(/C=C2\SC(N3CCN(C4=NC(=O)/C(=C\c5ccc(N(C)C)cc5)S4)CC3)=NC2=O)cc1`, for which the displacement was -12.9%. Turning to `OC1(C#CCN(C2CCCCC2)C2CCCCC2)CCCCC1`, the displacement was 13.9%. As for `Cc1sc2nc(SCC(=O)N3CCCCC3)[nH]c(=O)c2c1C`, the displacement was -0.3%. Consider `COc1ccccc1N1CCN(/N=C/c2cc([N+](=O)[O-])ccc2Cl)CC1`, for which the displacement was 6.8%. Turning to `COc1cccc(/C=C2\SC(N)=NC2=O)c1OC`, the displacement was -7.3%.

Take `COc1ccc(N2C(=O)CC(N(CCc3ccc(OC)c(OC)c3)C(C)=O)C2=O)cc1` (configuration not stated): the displacement is -5.2%. The figure for `CCOc1cc(C(=O)Nc2cccc(F)c2)cc(OCC)c1OCC` is -12.8%; for `Cc1cc(C)c(S(=O)(=O)Nc2cccc([N+](=O)[O-])c2C)c(C)c1` it is 13.6%. In the case of `O=C(NCc1ccncc1)C(=O)Nc1nc(C23CC4CC(CC(C4)C2)C3)cs1`, the displacement is -18.6%.

As for `COC(=O)CN(c1cccc(C)c1)S(C)(=O)=O`, the displacement is 10.5%.

Take `COCCN1C(=O)C(=O)/C(=C(/O)c2ccccc2)C1c1ccc(O)c(OC)c1` (configuration not stated): the displacement is -10.3%.

For `COc1ccccc1CNC(=O)Cc1ccc(Br)cc1`, the displacement was determined as 17.2%. `CCCN1C/C(=C\c2ccccc2)C(=O)/C(=C/c2ccccc2)C1`: the displacement was 18.4%. Consider `Cc1ccc(N2C(=O)C3C4C=CC(O4)C3C2=O)c(C)c1` (configuration not stated), for which the displacement is -5.8%.

As to `Cc1cccc(C)c1OCC(=O)Nc1ccc(C(=O)Nc2ccccc2C(=O)O)cc1`, the displacement came to 20%. Take `O=C(c1ccc(Br)cc1)N1CCN(Cc2ccccc2)CC1`: the displacement was -9.6%. On to `COc1cc(C(=S)N2CCOCC2)ccc1OC(=O)c1ccc([N+](=O)[O-])cc1`, for which the displacement was determined as 10.9%. The value for `CCOc1ccccc1NC(=O)COc1ccc(Br)c(C)c1` was -9%; that for `CN1CCN(C(=S)NC(=O)c2ccc(Br)cc2)CC1` was -1.7%. As for `COc1ccc(/C=C(\NC(=O)c2ccccc2)C(=O)N/N=C/c2sccc2C)cc1`, the displacement is 8.7%. Consider `CCOc1ccc(C(=O)N2CCN(c3ccccc3OC)CC2)cc1OCC`, for which the displacement was 39.6%. With `O=C(O)CCC(=O)Nc1sc2c(c1C(=O)Nc1cccc3ccccc13)CCCC2`, the displacement worked out at 7.4%. The figure for `Cc1c(-n2c(O)c(C3=c4cc(Cl)ccc4=NC3=O)sc2=S)c(=O)n(-c2ccccc2)n1C` is 5.6%; for `CN(C)/C=C1\N=C(c2cccc(Cl)c2)OC1=O` it is 1.9%. Regarding `O=c1c2cc3c(=O)n(-c4ccc(S)cc4)c(=O)c3cc2c(=O)n1-c1ccc(S)cc1`, the displacement stood at 10.5%. `CCC(Oc1ccccc1)C(=O)Nc1sc2c(c1C(N)=O)CCC(C(C)(C)C)C2` (configuration not stated): the displacement is -0.3%.
